The source of these data is the supplement of paper PMC4604168 (melanoma cell lines).

The list shows a part of the results. Single values are uncertain, as repeats are few or missing.
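Also: cell number obtained by counting DAPI-stained nuclei in high-throughput microscope images with image analysis software, screen run in 1,536-well plates.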

This test deals with COLO792. In words: cell count relative to DMSO control; melanoma cells; higher = more viable cells. Conditions: library dose: low library concentration; 72 h.
With `Cc1cc(Nc2cc(N3CCN(C)CC3)nc(Sc3ccc(NC(=O)C4CC4)cc3)n2)n[nH]1` [Tozasertib] + COc1ccc2c(c1)CCC1C2CCC2(C)C(NCCCCCCN3C(=O)C=CC3=O)CCC12 [U73122] (first compound 0.006 µM, partner dose 0.4 µM), the cell count is 95.6%. Under `CC[C@]1(O)C[C@H]2CN(CCc3c([nH]c4ccccc34)[C@@](C(=O)OC)(c3cc4c(cc3OC)N(C=O)[C@H]3[C@@](O)(C(=O)OC)[C@H](OC(C)=O)[C@]5(CC)C=CCN6CC[C@]43[C@@H]65)C2)C1` [vincristine] + O=C1NC(=O)/C(=C/c2ccc(-c3ccc(F)cc3O)o2)S1 [AS252424] (first compound 0.0001 µM, partner dose 1 µM) stands 103%; under `Cc1cc(Nc2cc(N3CCN(C)CC3)nc(Sc3ccc(NC(=O)C4CC4)cc3)n2)n[nH]1` [Tozasertib] + O=C(Nc1ccccc1)c1cc([N+](=O)[O-])ccc1Cl [GW9662] (first compound 0.006 µM, partner dose 2 µM), 112%.

As to `N#CC[C@H](C1CCCC1)n1cc(-c2ncnc3[nH]ccc23)cn1` [ruxolitinib] + C=CCn1c(=O)c2cnc(Nc3ccc(N4CCN(C)CC4)cc3)nc2n1-c1cccc(C(C)(C)O)n1 [MK1775] (first compound 1 µM, partner dose 0.02 µM), the cell count came to 103%.

Consider `CC[C@]1(O)C[C@H]2CN(CCc3c([nH]c4ccccc34)[C@@](C(=O)OC)(c3cc4c(cc3OC)N(C=O)[C@H]3[C@@](O)(C(=O)OC)[C@H](OC(C)=O)[C@]5(CC)C=CCN6CC[C@]43[C@@H]65)C2)C1` [vincristine] + C[C@@H]1CCN(C(=O)CC#N)C[C@@H]1N(C)c1ncnc2[nH]ccc12 [CP690550] (first compound 0.0001 µM, partner dose 1 µM), for which the cell count is 93.3%. Under `N#CC[C@H](C1CCCC1)n1cc(-c2ncnc3[nH]ccc23)cn1` [ruxolitinib] + O=C1NC(=O)/C(=C/c2ccc(-c3ccc(F)cc3O)o2)S1 [AS252424] (first compound 1 µM, partner dose 1 µM) stands 108%; under `CC[C@]1(O)C[C@H]2CN(CCc3c([nH]c4ccccc34)[C@@](C(=O)OC)(c3cc4c(cc3OC)N(C=O)[C@H]3[C@@](O)(C(=O)OC)[C@H](OC(C)=O)[C@]5(CC)C=CCN6CC[C@]43[C@@H]65)C2)C1` [vincristine] + COc1ccc(-c2ccc3c(N4CCOCC4)nc(N4C[C@@H](C)O[C@@H](C)C4)nc3n2)cc1CO [KU0063794] (first compound 0.0001 µM, partner dose 0.02 µM), 89.8%.

Take `N#CC[C@H](C1CCCC1)n1cc(-c2ncnc3[nH]ccc23)cn1` [ruxolitinib] + O=C(Nc1cccc(Cl)c1)Nc1ncc(CCNc2ncnc3ccsc23)s1 [SNS314] (first compound 1 µM, partner dose 0.0008 µM): the cell count came out at 101%. Under `N#CC[C@H](C1CCCC1)n1cc(-c2ncnc3[nH]ccc23)cn1` [ruxolitinib] + NC(=O)Nc1cc(-c2cccc(F)c2)sc1C(=O)N[C@H]1CCCNC1 [AZD7762] (first compound 1 µM, partner dose 0.02 µM) stands 99.5%; under `N#CC[C@H](C1CCCC1)n1cc(-c2ncnc3[nH]ccc23)cn1` [ruxolitinib] + CC(C)CCN1c2nc(Nc3cc(F)c(O)c(F)c3)ncc2N(C)C(=O)C1C [BID1870] (first compound 1 µM, partner dose 0.2 µM), 107%. `N#CC[C@H](C1CCCC1)n1cc(-c2ncnc3[nH]ccc23)cn1` [ruxolitinib] + c1cc(-c2cnn3cc(-c4ccc(OCCN5CCCCC5)cc4)cnc23)ccn1 [Dorsomorphin] (first compound 1 µM, partner dose 0.4 µM) had a cell count of 97.7%. In turn, `Cc1cc(Nc2cc(N3CCN(C)CC3)nc(Sc3ccc(NC(=O)C4CC4)cc3)n2)n[nH]1` [Tozasertib] + Oc1cc(-c2nc(-c3ccccc3)[nH]c2-c2ccncc2)ccc1Cl [L779450] (first compound 0.006 µM, partner dose 0.2 µM) returned a cell count of 101%. For the compound `N#CC[C@H](C1CCCC1)n1cc(-c2ncnc3[nH]ccc23)cn1` [ruxolitinib] + CC1(C)NC(=O)N(c2ccc([N+](=O)[O-])c(C(F)(F)F)c2)C1=O [nilutamide] (first compound 1 µM, partner dose 1 µM), the cell count turned out to be 108%.
